# The list shows a part of the results, in another mix than the full data. Results filed as inconclusive are left out. Calls of active or inactive are those of the source. Calls follow the shape of the dose curve; as a rule, active = well fitted curve in the direction sought with a large enough effect; inconclusive = small, poorly fitted or top-dose-only effect, or effect the other way; inactive = no such curve, though single readings can be large or run the other way.
# Target: Cytochrome P450 3A4 (Homo sapiens) (UniProt P08684)
# UniProt P08684, sequence (P08684 whole entry, looked up): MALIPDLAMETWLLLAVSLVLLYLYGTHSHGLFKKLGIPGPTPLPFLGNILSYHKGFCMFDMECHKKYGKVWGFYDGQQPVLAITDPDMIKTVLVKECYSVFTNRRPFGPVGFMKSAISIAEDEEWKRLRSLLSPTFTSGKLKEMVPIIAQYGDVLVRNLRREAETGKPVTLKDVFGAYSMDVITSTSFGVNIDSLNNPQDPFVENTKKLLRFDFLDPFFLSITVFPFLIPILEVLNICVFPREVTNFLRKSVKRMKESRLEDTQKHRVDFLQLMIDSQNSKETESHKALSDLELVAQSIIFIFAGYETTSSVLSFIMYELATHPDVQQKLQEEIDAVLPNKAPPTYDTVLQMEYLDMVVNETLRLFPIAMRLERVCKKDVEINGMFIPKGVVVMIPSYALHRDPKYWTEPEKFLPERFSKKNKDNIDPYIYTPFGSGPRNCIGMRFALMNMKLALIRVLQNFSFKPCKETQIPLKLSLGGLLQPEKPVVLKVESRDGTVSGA
# Assay: Cytochrome panel assay with activity outcomes
# Details: recombinant CYP, pro-luciferin dealkylation, luminescence, p450-cyp3a4; series mostly up to 2.29 µM; activity, negative = inhibition: at the top concentration
# Method: The P450 gene superfamily is involved in the metabolism and clearance of xenobiotics. This assay used various human CYP P450 isozymes to measure the dealkylation of various pro-luciferin substrates to luciferin. The luciferin is then measured by luminescence after the addition of a luciferase detection reagent. Pro-luciferin substrate concentration in the assay was equal to its KM for its CYP P450 isozyme. Inhibitors and some substrates limit the production of luciferin, and decrease measured luminescence.
# NCGC Assay Protocol Summary:
# 1, Reagent, 2 uL, Isozyme and Pro-Luciferin
# 2, Library compounds, 23 nl, 40 uM to 0.24 nM dilution series
# 3, Controls, 23 nl, Isozyme specific inhibitor
# 4, Reagent, 2 uL, NADPH regeneration solution
# 5, Incubation time, 60 min, Isozyme specific temperature
# 6, Reagent, 4ul, Detection reagent
# 7, Incubation time, 20 min, Isozyme specific temperature
# 8, Detection, 1 sec, ViewLux luminescent read
# The luciferase-based P450-GloTM Screening Systems were obtained from Promega (Madison, WI) for CYP 1A2 (V9770), CYP 2C9 (V9790), CYP2 C19 (V9880), CYP 2D6 (V9890), and CYP 3A4 Luciferin-PPXE (V9910) and were adapted for 1,536-well microplates and an automated protocol. The control compounds furafylline for 1A2 (F124), sulfaphenazole for CYP 2C9 (S0758), ketoconazole for CYP 2C19 (K1003), quinidine for 2D6 (Q3625), and ketoconazole for 3A4 (K1003) were purchased from Sigma Aldrich (St. Louis, MO). Recombinant P450 enzymes were obtained from baculovirus constructs expressed in insect cells (BD/Gentest).
# Medium-binding white solid Kalypsys plates used. Mixtures kept on ice. 1A2: 10 nM 1A2, 100 uM Luc-ME, 100 mM KPO4; 2C9: 10 nM 2C9, 100 uM Luc-H, 25 mM KPO4; 2C19: 5 nM 2C19, 10 uM Luc-H EGE, 50 mM KPO4; 2D6: 5 nM 2D6, 30 uM Luc-ME EGE, 100 mM KPO4; 3A4: 10 nM, 25 uM Luc-PPXE. All amounts are reflected in their final concentration, working concentration is 2x.
# NADPH regeneration solution: 1.3 mM NADP+, 3.3 mM glucose-6-phosphate, 3.3 mM MgCl2, 0.4 U/mL glucose-6-phosphate dehydrogenase for all isozymes, 200 mM KPO4 for 3A4. Mixture prepared at RT but kept on ice during automated run.
# RT incubation in auxilliary plate hotel for 1A2, 2D6, and 3A4; 37C for 2C9 and 2C19.
# Keywords: P450, CYP1A2, CYP2C19, CYP2C9, CYP2D6, CYP3A4, Luciferase, MLSMR, MLSCN, NIH Roadmap, qHTS, NCGC
# % is scaled to controls: 0 for no effect and ±100 for the full control effect.
Structure (SMILES),AC50,"activity, negative = inhibition"
COC(=O)C1=C(C(=O)OC)C(c2cc(Cl)ccc2O)c2sc(=O)[nH]c2S1 (stereo not drawn),active: 15.8 µM,–
Cc1ccc(OCCNC(=O)/C=C/c2ccc([N+](=O)[O-])cc2)cc1C,–,inactive: -7.5%
Nc1ccc(Sc2ccccc2CC(=O)O)cc1,–,inactive: -5.28%
CCOc1cc(/C=N/n2cnnc2)ccc1OC(=O)c1cccc([N+](=O)[O-])c1,active: 15.8 µM,–
CCN(C(=O)CSc1nnc(Cc2cccc3ccccc23)n1N)C1CCS(=O)(=O)C1 (stereo not drawn),active: 6.31 µM,–
O=S(=O)(c1ccccc1)N1CCN(S(=O)(=O)c2ccccc2)c2ccccc21,active: 3.98 µM,–
CC[C@](C)(CN(C)C)OC(=O)c1ccccc1,–,inactive: -6.4% [at 25.6 µM]
COc1ccc(C2=NN(C)C(=NCc3ccccc3)SC2)cc1,–,inactive: 28.7% [at 57.1 µM]
